# Test results as given in the supplement of paper PMC12217912.
# The list shows a part of the results. The full chains were built here from the parent and the listed change. Values near 0.05 are background.
# B1: TEV protease; numbered along this chain (parent)
# chain: MGESLFKGPRDYNPISSSICHLTNESDGHTTSLYGIGFGPFIITNKHLFRRNNGTLVVQSLHGVFKVKDTTTLQQHLVDGRDMIIIRMPKDFPPFPQKLKFREPQREERICLVTTNFQTKSMSSMVSDTSCTFPSGDGIFWKHWIQTKDGQCGSPLVSTRDGFIVGIHSASNFTNTNNYFTSVPKNFMELLTNQEAQQWVSGWRLNADSVLWGGHKVFMVKPEEPFQPVKEATQL
# Variants of: B1
# Assay: raw area under fraction-flipped curve 0-4 h after induction (AUC4h, not background-subtracted), DNA-recorder readout of cleavage of the substrate (dimensionless); higher = more cleavage of the substrate by the protease variant
# Conditions: temperature: 34 °C; time window: 0-4 h after rhamnose induction
# 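Note: Bxb1 expression induced with 0.2% (w/v) L-rhamnose at OD600 near 0.5, cultures sampled hourly, flipped fraction per protease–substrate barcode pair counted by paired-end Illumina sequencing.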
Variant,area with substrate EELYFQS,area with substrate EGLYFQS,area with substrate EHLYFQS,area with substrate EILYFQS,area with substrate EKLYFQS,area with substrate ELLYFQS,area with substrate EMLYFQS,area with substrate EPLYFQS,area with substrate EQLYFQS,area with substrate ESLYFQS,area with substrate ETLYFQS,area with substrate EVLYFQS,area with substrate EWLYFQS,area with substrate EYLYFQS,area with substrate ERLYFQS,area with substrate EDLYFQS,area with substrate EFLYFQS
MGESLFKGPRDYNPISSSICHLTNESDGHTTSLYGIGFGPFIITNKHLFRRNNGFLVVQSLHGVFKVKDTTTLQQHLVDGRDMIIIRMPKDFPPFPQKLKFREPQREERICLVTTNFQTKSMSSMVSDTSCTFPSGDGIFWKHWIQTKDGQCGSPLVSTRDGFIVGIHSASNFTNTNNYFTSVPKNFMELLTNQEAQQWVSGWRLNADSVLWGGHKVFMVKPEEPFQPVKEATQL [T55F],0.08,0.0822,0.101,0.0837,0.131,0.106,0.109,0.145,0.061,0.112,0.111,0.0937,0.104,0.102,–,–,–
MGESLFKGPHDYNPISSSICHLTNESDGHTTSLYGIGFGPFIITNKHLFRRNNGTLVVQSLHGVFKVKDTTTLQQHLVDGRDMIIIRMPKDFPPFPQKLKFREPQREERICLVTTNFQTKSMSSMVSDTSCTFPSGDGIFWKHWIQTKDGQCGSPLVSTRDGFIVGIHSASNFTNTNNYFTSVPKNFMELLTNQEAQQWVSGWRLNADSVLWGGHKVFMVKPEEPFQPVKEATQL [R10H],0.108,0.0858,–,0.0931,0.0796,0.0709,0.101,0.0986,–,0.0037,0.0934,–,0.081,–,0.0796,–,–
MGESLFKGPRDYNPISSSICHLTNESDGHTTSLYGIGFGPFIITNKHLFRRNNGTLVVQSLHGVFKVKDTTTLQQHLVDGRDMIIIRMPKDFPPFPQKLKFREPQREERICLVTTNFQTKSMSSMVSDTSCTFPSGDGIFWKHWIQTKDGQCGSPLVSTRDGFIVGIHSASNFTNTNNYFTSVPKNFMELLTNQEAQQWVSGWRLNADSVLWGGHKVFMVKPEEPFQPGKEATQL [V229G],0.126,0.0829,0.136,0.0586,0.119,0.0889,0.133,0.138,0.129,0.0918,–,0.116,–,–,0.105,0.117,0.113
MGESLFKGPRDYNPISSSICHLTNESDGHTTSLYGIGFGPFIITNKHLFRRNNGTLVVQSLHGVFKVKDTTTLQQHLVDGRDMIIIRMPKDFPPFPQKLKFREPQREERICLVTTNFQTKSMSSMVSDTSCTFPSGDGIFWKHWIQTKDGQCGSPLVSTRDSFIVGIHSASNFTNTNNYFTSVPKNFMELLTNQEAQQWVSGWRLNADSVLWGGHKVFMVKPEEPFQPVKEATQL [G162S],0.111,–,0.0912,0.0902,–,–,–,–,0.101,0.103,–,0.0821,–,–,0.0976,–,–
MGESLFKGPRDYNPISSSICHLTNESDGHTTSLYGIGFGPFIITNKHLFRRNNGTLVVQSLHGVFKVKDTTTLQQHLVDGRDMIIIRMPKDEPPFPQKLKFREPQREERICLVTTNFQTKSMSSMVSDTSCTFPSGDGIFWKHWIQTKDGQCGSPLVSTRDGFIVGIHSASNFTNTNNYFTSVPKNFMELLTNQEAQQWVSGWRLNADSVLWGGHKVFMVKPEEPFQPVKEATQL [F92E],0.0946,0.0912,0.0634,0.0716,0.0844,0.0854,0.103,0.0922,–,0.0853,–,–,–,–,0.0785,–,0.088
MGESLFKGPRDYNPISSSICHLTNESDGHTTSLYGIGFGPFIITNKHLFRRNNGTLVVQSLHGVFKVKDTTTLQQHLVDGRDMIIIRMPKDFPPFPQKLKFREPQREERICLVTTNFQTKSMSSMVSDTSCTFPSGDGIFWKHWIQTKDGQCGSPLVSTRDGFIVGIHSASNFTNTNNYFTSVPKNFMELLTNQEAQQWVSHWRLNADSVLWGGHKVFMVKPEEPFQPVKEATQL [G202H],0.0782,0.0662,–,0.0539,0.0905,–,–,0.0758,–,0.0384,0.066,0.0582,0.0926,0.0689,0.0726,–,–
MGESLFKGPRDYNPISSSICHLTNESDGHTTSLYGIGFGPFIITNKHLFRRNNGTLVVQSLHGVFKVKDTTTLRQHLVDGRDMIIIRMPKDFPPFPQKLKFREPQREERICLVTTNFQTKSMSSMVSDTSCTFPSGDGIFWKHWIQTKDGQCGSPLVSTRDGFIVGIHSASNFTNTNNYFTSVPKNFMELLTNQEAQQWVSGWRLNADSVLWGGHKVFMVKPEEPFQPVKEATQL [Q74R],0.101,–,0.0713,0.0884,–,0.0454,0.104,0.111,0.104,0.0892,0.12,–,0.0844,0.105,0.0872,–,0.0962
MGESLFKGPRDYNPISSSICHLTNESDGHTTSLYGIGFGPFIITNKHLFRRNNGTLVVQSLHGVFKVKDTTTLQQHLVDGRDMIIIRMPKDFPPFPQKLKFREPQREERICLVTTNFQTKSMSSMVSDTSCTFPSYDGIFWKHWIQTKDGQCGSPLVSTRDGFIVGIHSASNFTNTNNYFTSVPKNFMELLTNQEAQQWVSGWRLNADSVLWGGHKVFMVKPEEPFQPVKEATQL [G136Y],0.123,–,0.134,0.0915,0.108,–,–,0.141,0.099,0.115,0.102,–,–,–,0.115,–,–
MGESLFKQPRDYNPISSSICHLTNESDGHTTSLYGIGFGPFIITNKHLFRRNNGTLVVQSLHGVFKVKDTTTLQQHLVDGRDMIIIRMPKDFPPFPQKLKFREPQREERICLVTTNFQTKSMSSMVSDTSCTFPSGDGIFWKHWIQTKDGQCGSPLVSTRDGFIVGIHSASNFTNTNNYFTSVPKNFMELLTNQEAQQWVSGWRLNADSVLWGGHKVFMVKPEEPFQPVKEATQL [G8Q],0.116,–,0.104,–,0.152,–,–,–,–,0.103,–,0.0998,–,0.0855,–,–,–
MGESLFKGPRDYNPISSSICHLTNESDGHTTSLYGIGFGPFIITNKHLFRRNNGTLVVQSLHGVFKVKDTTTLQQHLVDGRDMIIIRMPKDFPPFPQKLKFREPQREERICLVTTNFQTKSMSSMVSDTSCTFPSGDGIFWKHWIQTKDGQCGSPLVSTRDGFIVGIHSASNFTNTNNYFTSVPKNFMELLFNQEAQQWVSGWRLNADSVLWGGHKVFMVKPEEPFQPVKEATQL [T192F],0.159,–,–,0.101,0.0794,–,0.116,–,0.117,0.121,–,0.0837,–,0.0752,0.0886,–,0.215
MGESLFKGPRDYNPISSSICHLTNESDGHTTSLYGIGFGPFIITNKHLFRRNNGTLVVQSLHGVFKVKDTTTLQQHLVDGRDMIIIRMPKDFPPFPQKLKFREPEREERICLVTTNFQTKSMSSMVSDTSCTFPSGDGIFWKHWIQTKDGQCGSPLVSTRDGFIVGIHSASNFTNTNNYFTSVPKNFMELLTNQEAQQWVSGWRLNADSVLWGGHKVFMVKPEEPFQPVKEATQL [Q105E],0.119,0.0893,0.0792,0.103,0.117,–,–,–,0.151,0.0896,0.109,–,–,–,–,–,–
MGESLFKGPRDYNPISSSICHLTNESDGHTTSLYGIGFGPFIITNKMLFRRNNGTLVVQSLHGVFKVKDTTTLQQHLVDGRDMIIIRMPKDFPPFPQKLKFREPQREERICLVTTNFQTKSMSSMVSDTSCTFPSGDGIFWKHWIQTKDGQCGSPLVSTRDGFIVGIHSASNFTNTNNYFTSVPKNFMELLTNQEAQQWVSGWRLNADSVLWGGHKVFMVKPEEPFQPVKEATQL [H47M],0.0596,0.0761,0.0643,0.053,0.0478,0.0424,0.0634,0.0562,0.059,0.0664,–,0.0773,0.0683,0.0838,–,0.0818,0.0457
MGESLFKGPRDYNPISSSICHLTNESDGHTTSLYGIGFGPFIITNKHLFRRNNGTLVVQSLHGVFKVKDTTTLQQHLVDGRDMIIIRMPKDFPPFPQKLKFREPQREERICLVTTNRQTKSMSSMVSDTSCTFPSGDGIFWKHWIQTKDGQCGSPLVSTRDGFIVGIHSASNFTNTNNYFTSVPKNFMELLTNQEAQQWVSGWRLNADSVLWGGHKVFMVKPEEPFQPVKEATQL [F117R],0.14,–,0.105,–,–,0.101,0.115,0.117,–,–,0.12,–,0.0909,0.13,–,0.0813,–
MGESLFKGPRDYNPISSSICHLTNESDGHTTSLYGIGFGPFIITNKHLFRRNNGTLVVQSLHGVFKVKDTTTLQQHLVDGKDMIIIRMPKDFPPFPQKLKFREPQREERICLVTTNFQTKSMSSMVSDTSCTFPSGDGIFWKHWIQTKDGQCGSPLVSTRDGFIVGIHSASNFTNTNNYFTSVPKNFMELLTNQEAQQWVSGWRLNADSVLWGGHKVFMVKPEEPFQPVKEATQL [R81K],0.123,–,–,0.0969,–,0.0878,–,–,0.129,0.11,–,0.0916,–,0.105,–,0.167,–
MGESLFKGPRDYNPISSSICHLTNESDGHTTSLYGIGFGPFIITNKHLFRRNNGTLVVQSLHGVFKVKDTTTLQQHLVDGRDMIIIRMPKDFPPFPQKLKFREPQREERICLVTTNFQTKSMSSMVSDTSCTFPSGDGIFWKHWIQTKDGQCGSPLVSTRDGFIVGIHSASNFTNTNNYFTSVPKNFMALLTNQEAQQWVSGWRLNADSVLWGGHKVFMVKPEEPFQPVKEATQL [E189A],0.0974,0.0941,0.105,–,0.104,0.0977,0.0863,–,0.0906,0.107,–,–,–,–,–,–,–
MGESLFKGPRDYNPISSSICHLTNESDGHTTSLYGIGFGPFIITNKHLFRRNNGTLVVQSLHGVFKVKDTTTLQQHLVDGRDMIIIRMPKDFPPFPQKLKFREPQREERICLVTTNFQTKSMSFMVSDTSCTFPSGDGIFWKHWIQTKDGQCGSPLVSTRDGFIVGIHSASNFTNTNNYFTSVPKNFMELLTNQEAQQWVSGWRLNADSVLWGGHKVFMVKPEEPFQPVKEATQL [S124F],0.0962,0.0948,0.0966,–,0.118,0.103,0.0755,0.108,–,0.0909,–,0.0812,0.0988,0.109,0.1,–,0.124
MGESLFKGPRDYNPISSSICHLTNESDGHTTSLYGIGFGPFIITNKHLFRRNNGTLVVQSLHGVFKVKDTTTLQQHLVDGRDMIIIRMPKDFPPFPQKLKFREPQREERICLVTTNFQTKSMSSMVSDTSCTFPSGDGIFWKHWIQTKDGQCGMPLVSTRDGFIVGIHSASNFTNTNNYFTSVPKNFMELLTNQEAQQWVSGWRLNADSVLWGGHKVFMVKPEEPFQPVKEATQL [S154M],0.116,0.0872,–,0.106,0.0899,–,0.111,–,0.102,0.0933,–,0.0958,–,–,0.104,–,–
MGESLFKGPRDYNPISSSICHLTNESDGHTTSLYGIGFGPFIITNKHLFRKNNGTLVVQSLHGVFKVKDTTTLQQHLVDGRDMIIIRMPKDFPPFPQKLKFREPQREERICLVTTNFQTKSMSSMVSDTSCTFPSGDGIFWKHWIQTKDGQCGSPLVSTRDGFIVGIHSASNFTNTNNYFTSVPKNFMELLTNQEAQQWVSGWRLNADSVLWGGHKVFMVKPEEPFQPVKEATQL [R51K],0.105,–,–,0.0765,0.117,–,0.108,–,0.124,0.0859,0.15,–,–,0.108,–,–,–
MGESLFKGPRDYNPISSSICHLTNESDGHTTSLYGIGFGPFIITNKHLFRRNNGTLVVQSLHGVFKVKDTTTLQQHLVDGRDMIIIRMPKDFPPFPQKLKFREPQREERICLVTTNFQTKSMSSMVSDTSDTFPSGDGIFWKHWIQTKDGQCGSPLVSTRDGFIVGIHSASNFTNTNNYFTSVPKNFMELLTNQEAQQWVSGWRLNADSVLWGGHKVFMVKPEEPFQPVKEATQL [C131D],0.0919,–,0.0833,–,0.0929,–,–,–,0.11,–,–,0.0947,0.0813,–,–,–,0.0853
MGESLFKGPRDYNPISSSICHLTNESDGKTTSLYGIGFGPFIITNKHLFRRNNGTLVVQSLHGVFKVKDTTTLQQHLVDGRDMIIIRMPKDFPPFPQKLKFREPQREERICLVTTNFQTKSMSSMVSDTSCTFPSGDGIFWKHWIQTKDGQCGSPLVSTRDGFIVGIHSASNFTNTNNYFTSVPKNFMELLTNQEAQQWVSGWRLNADSVLWGGHKVFMVKPEEPFQPVKEATQL [H29K],0.136,–,0.0779,–,–,0.0882,0.115,0.0845,–,0.0952,–,–,–,–,–,–,–
